Laboratory results from PubChem BioAssay AID1645887 (National Center for Advancing Translational Sciences (NCATS), 2021).
Values joined by “and” are separate entries in the source; they are usually repeats but may differ in a detail not shown here. Equal values may be shown once. Out of some 16,000 compounds screened, about 40 (0.2%) were called active. About 1% were inconclusive and are not listed. Calls follow the shape of the dose curve; as a rule, active = well fitted activation curve with a large enough effect; inconclusive = small, poorly fitted or top-dose-only effect, or another doubt; inactive = no such curve, though single readings can be large or run the other way. The list shows a part of the results.

Molecular target: Rap guanine nucleotide exchange factor 4 (Homo sapiens) (UniProt Q8WZA2)
UniProt Q8WZA2, sequence (Q8WZA2 whole entry, looked up): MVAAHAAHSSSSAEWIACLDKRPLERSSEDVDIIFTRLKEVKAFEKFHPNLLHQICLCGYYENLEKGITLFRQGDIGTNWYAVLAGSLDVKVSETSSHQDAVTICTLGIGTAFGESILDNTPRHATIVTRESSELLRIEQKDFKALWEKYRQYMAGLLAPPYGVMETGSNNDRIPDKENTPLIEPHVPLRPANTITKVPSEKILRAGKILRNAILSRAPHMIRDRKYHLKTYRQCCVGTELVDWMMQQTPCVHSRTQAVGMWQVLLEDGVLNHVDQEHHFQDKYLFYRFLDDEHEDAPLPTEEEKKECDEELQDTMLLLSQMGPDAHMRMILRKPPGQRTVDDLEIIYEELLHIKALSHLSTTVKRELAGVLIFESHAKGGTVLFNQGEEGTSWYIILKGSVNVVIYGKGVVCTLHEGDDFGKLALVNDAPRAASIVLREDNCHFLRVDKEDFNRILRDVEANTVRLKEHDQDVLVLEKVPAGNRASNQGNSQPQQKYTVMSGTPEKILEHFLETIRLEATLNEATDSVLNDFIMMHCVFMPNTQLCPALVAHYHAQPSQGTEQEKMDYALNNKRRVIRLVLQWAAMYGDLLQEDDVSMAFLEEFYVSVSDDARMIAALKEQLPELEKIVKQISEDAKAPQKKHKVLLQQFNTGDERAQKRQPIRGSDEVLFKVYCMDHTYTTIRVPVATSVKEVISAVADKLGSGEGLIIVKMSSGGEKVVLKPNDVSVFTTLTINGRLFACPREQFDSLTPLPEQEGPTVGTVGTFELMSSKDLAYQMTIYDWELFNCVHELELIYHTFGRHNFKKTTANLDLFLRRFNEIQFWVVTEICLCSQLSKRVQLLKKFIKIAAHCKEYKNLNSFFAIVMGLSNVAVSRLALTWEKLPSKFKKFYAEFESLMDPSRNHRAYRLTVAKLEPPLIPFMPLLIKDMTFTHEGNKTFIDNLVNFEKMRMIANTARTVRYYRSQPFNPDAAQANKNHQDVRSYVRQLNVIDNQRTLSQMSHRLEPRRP
Assay: Validation qHTS for agonist of cAMP-regulated guanine nucleotide exchange factor 4 (EPAC2);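 also: exchange makes BODIPY-GDP fluorescence drop when released from Rap1B; series mostly up to about 150 µM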
Details: EPAC2 Rap1B BODIPY-GDP exchange, fluorescence; activation: stronger effect = higher value
Procedure, shortened: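 Fluorescent exchange assay: 100 nM EPAC2 with 250 nM RAP1B-BODIPY-GDP and 50 uM GDP; compound added, 5 min at room temperature, then read (ex 480/em 540 nm) every 5 min for 30 min. Normalized to 6.5 mM cAMP agonist control.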
% is scaled to controls: 0 for no effect and ±100 for the full control effect.

activation, inactive:
O=C(O)c1cc(=O)c2ccccc2o1 -8.55%
COc1ccccc1CN1CCCC2(CCN(C(=O)c3c(C)noc3C)CC2)C1 -1.85%
CC(C)NC(=O)c1cn(C2CCC(NC(=O)C(C)(C)C)CC2)nn1 (stereo not given) -0.269%
CN(CCc1ccc(Cl)c(Cl)c1)CCN1CCCCCC1 -12.4%
COc1ccc2oc(-c3ccccc3)c(OC)c(=O)c2c1 -0.783%
COc1ccc(CN2CCN(C(C)=O)CC2)cc1OC1CCN(C(=O)c2ccc3[nH]c(C)c(C)c3c2)CC1 -13.8%
CCCCCCCCCCCCC/C=C/[C@@H](O)[C@H](CO)NC(C)=O -30.8%
CC(C)NC(=O)N1CCC2(CC1)CCN(C(=O)c1cc(C(F)(F)F)cc(C(F)(F)F)c1)CC2 -27.7%
O=C(c1csnn1)N1CCC2(CCN(Cc3nccs3)CC2)CC1 1.77%
Cc1cc(CNC(=O)CCN2Cc3cc(Cl)ccc3OC(C)C2)nn1C (stereo not given) 2.24%
C#CCC(Cc1cnc2nc(N)nc(N)c2n1)c1ccc(C(=O)N[C@@H](CCC(=O)O)C(=O)O)cc1 (stereo not given in full) 4.51%
O=C(c1cc(C(F)(F)F)cc(C(F)(F)F)c1)N1CCC2(CCCN(c3ccccn3)C2)CC1 -5.25%
O=[N+]([O-])c1cccc2c[nH]nc12 -3.07%
Cn1c(=O)c(-c2cc(F)cc(F)c2)nc2cnc(N3CCNCC3)nc21 0.721%
CC(C)(C)NCC(O)COc1cccc2[nH]c(=O)[nH]c12 (stereo not given) -22.2% and -21.6%
NC(=O)C(=O)N/N=C/c1ccc([N+](=O)[O-])o1 -7.47%
COc1cc(=O)n2c(c1C(=O)N(C)Cc1nonc1C)CCN(Cc1cccc(Cl)c1)CC2 -7.65%
CC(=O)N1CCC2(CCCN(Cc3ccccc3)C2)CC1 0.549%
COc1ccc(OC)c(-c2ccnc(-n3ncc(C(=O)N(C)CCc4ccccn4)c3C)n2)c1 -12.8%
COc1ccc(C(=O)C[n+]2cc(Br)cc(Br)c2)cc1 -7.1%
CNCCCCc1cnc(C)c2[nH]c3ccccc3c12 -4.63%
CCCCCCCCCCCCCCCCSCC(COC)COP(=O)([O-])OCC[N+](C)(C)C (stereo not given) -37%
CCOC(=O)NNc1ccc(N(CC)CC(C)O)nn1 (stereo not given) 6.95%
COc1ccccc1C1CN(Cc2cccc3nccnc23)Cc2ccccc2O1 (stereo not given) 12.9%
CC(=O)C[C@H]1c2cc(C(F)(F)F)ccc2S(=O)(=O)N1C1CCCCC1 -26.3%
OCc1ccccc1O -9.47%
Cc1ccc(C(=O)N2CCOc3ccc(CN4CCN(Cc5ccccn5)CC4)cc3C2)cc1 -4.8%
CNC(=O)[C@H]1O[C@@H](n2cnc3c(NCc4cccc(I)c4)nc(Cl)nc32)[C@H](O)[C@@H]1O 0.887%
Cc1ccccc1-c1ccc2ncnc(NCCN3CCOCC3)c2c1 -13%
COc1c(N2CCNC(C)C2)c(F)cc2c(=O)c(C(=O)O)cn(C3CC3)c12 (stereo not given) 14.8%
O=C(c1ccccc1)c1ccc2n1CCC2C(=O)O (stereo not given) -5.45% and -35.1% and -13.9%
CCOC(=O)[C@@](C)(N)Cc1ccc(O)c(O)c1 -6.8%
OC1C=C2CCN3Cc4cc5c(cc4C(C1O)C23)OCO5 (stereo not given) 6.27%
Cc1ccc2nc(N)[nH]c(=O)c2c1Sc1ccncc1 -20.6%
CC(C)(C)c1ccc2c(S(=O)(=O)O)c(C(C)(C)C)ccc2c1 -15.4% and -27.3%
CCCCCCCCCC[n+]1cccc2cc(Br)ccc21 -29.6%
OCC1(CO)COC(C(Cl)(Cl)Cl)OC1 -3.61%
CC1(C)CC2C1CCC1(C)OC2(C)CCC1O (stereo not given) -8.15%
CCNc1ncc2nc(-c3cc(F)cc(F)c3)c(=O)n(C3CC3)c2n1 -15.1%
CC(NNC(=O)c1ccccc1)c1ccccc1 (stereo not given) -14.1%
CCCCCN=C(N)N/N=C/c1c[nH]c2ccc(OC)cc12 -17.3% and -13.8%
COc1ccc(S(=O)(=O)N(CCO)c2ccccc2CN(C)C/C=C/c2ccc(Cl)cc2)cc1 19%
O=C(Nc1ccccc1)N1CCC2(CC1)CCN(C(=O)c1csnn1)CC2 4.16%
NS(=O)(=O)c1cccc2c1c([N+](=O)[O-])cc1[nH]c(=O)c(=O)[nH]c12 -17.5%
CCC1(C2CCN(C(=O)c3cc(F)ccc3F)CC2)NC(=O)N(CCc2scnc2C)C1=O (stereo not given) -3.84%
CN1CCN(c2ncc3nc(-c4cc(F)cc(F)c4)c(=O)n(CCC#N)c3n2)CC1 -18.5%
C[C@@H](CC(=O)O)[C@@H](N)C(=O)O -20.1% and 3.78%
COCCNc1cc(-c2c(C)noc2C)ncn1 -16.6%
COCC(=O)N1CCC2(CC1)CCN(c1ccncc1)CC2 -2.46%
OCC1OC(n2cnc3c(NCc4ccco4)ncnc32)C(O)C1O (stereo not given) -15.4%
Cc1noc(C)c1-c1ccc2ncnc(N3CCN(C)CC3)c2c1 -13.2%
CN(C)c1ccc(-c2cncnc2Nc2ccccc2)cc1 -10.1%
CN(Cc1ccco1)c1ncnc2ccc(-c3ccoc3)cc12 -13.2%
NC(Cc1cnc[nH]1)C(=O)Nc1ccc2ccccc2c1 (stereo not given) -7.31%
CN(CC[C@@H](Oc1ccc(-c2ccccc2)cc1)c1ccc(F)cc1)CC(=O)O -10.8%
CCCCCCCCCC(=O)O -6.56%
COc1ccc2c(c1)OC(C)CN(CCNC(=O)c1ccc(-n3cccn3)cc1)C2 (stereo not given) -25.5%
Cc1cccc(-c2cccc(C(=O)N3CCc4c(cnc(C)c4CNC(=O)c4cncs4)C3)c2)c1 -26.6%
COc1ccc2[nH]cc(CCNc3ncncc3-c3cccnc3)c2c1 -2.51%
N#Cc1ccc(CN2CCC3(CC2)CCN(C(=O)c2csnn2)CC3)cc1 -13.8%
COC1=C(OC)C(=O)C(C/C=C(\C)CC/C=C(\C)CC/C=C(\C)CC/C=C(/C)CC/C=C(\C)CC/C=C(\C)CC/C=C(\C)CC/C=C(\C)CC/C=C(\C)CCC=C(C)C)=C(C)C1=O -7.79%
COc1cc(-c2noc(C)c2C#Cc2nccn2C)cc(OC)c1OC -8.78%
COc1ccc(C2CC(=O)c3c(O)cc(OC4OC(COC5OC(C)C(O)C(O)C5O)C(O)C(O)C4O)cc3O2)cc1O (stereo not given) 3.56%
O=C(O)CO.[NH2-].[NH2-].[Pt+2] 7.19%
Cn1cc(-c2nc3cnc(N4CCNCC4)nc3n(CCC#N)c2=O)c2ccccc21 7.73%
COc1cccc(C(=O)NCCN2CCN(c3ccc(Cl)cc3)CC2)c1 -38.6%
CCCOc1ccccc1-c1nc2n[nH]nc2c(=O)[nH]1 4.82% [middle of 4 runs]
CN(C)c1ccc(-c2cncnc2NCCN2CCOCC2)cc1 -33.8%
COc1ccccc1N1CCN(C[C@@H]2CN3C(=O)N(C)c4ccccc4C3=N2)CC1 -22.3%
Cc1cc2c(cc1C)N[C@]1(C[C@H]3CCCC(=O)N4CC[C@@H](C1)[C@@H]34)C(=NC1CCCCC1)N2 -24.6%
Cn1cccc1C(=O)N1CCC[C@@]2(CCN(Cc3cc(C(F)(F)F)cc(C(F)(F)F)c3)C2)C1 -39.6%
O=Cc1cc2ccccc2cc1O -22.5%
CCCCC(C=O)NC(=O)C(CC(C)C)NC(=O)OCc1ccccc1 (stereo not given) -21.3%
N#CCCn1c(=O)c(-c2ccc(Cl)cc2)nc2cnc(Oc3ccccc3)nc21 -3.65%
O=C(c1cnn(-c2nccc(-c3ccco3)n2)c1C1CC1)N1CCCCC1c1cccnc1 (stereo not given) -4.51%
COc1ccc(Cl)cc1-c1cc2c(c(OC)c1)OCCN(Cc1cccn1-c1nccs1)C2 -5.56%
CC(=O)Oc1cccc(C)c1 3.83%
c1cncc(-c2ccc3ncnc(N4CCNCC4)c3c2)c1 2.16%
CC[N+](C)(C)c1ccc(/C=C/c2ccncc2)cc1 -14.9%
COc1ccc(C2(C(=O)NCC3Cc4cccc(-c5cccnc5)c4O3)CCCC2)cc1 (stereo not given) 0.108%
FC(F)(F)COCC(F)(F)F -12.9%
COc1cccc2c1C(=O)CC(c1ccccc1)O2 (stereo not given) 2.55%
O=C(CN1Cc2ccccc2OC(c2ccsc2)C1)N1CCN(Cc2ccc3c(c2)OCO3)CC1 (stereo not given) -22.2%
COc1ncc2nc(C)c(=O)n(CCc3ccccc3)c2n1 -5.49%
CSc1ccc2c(c1)[C@H](N1CCN(C)CC1)Cc1ccccc1S2 1.27%
CCC1CN(CCNC(=O)c2ccc(C#CC(C)(C)O)cc2)Cc2cc(OC)ccc2O1 (stereo not given) -3.13%
O=S1(=O)CCOC[C@H](CC2CCCCC2)N1Cc1cccc(Cl)c1 -31.3%
Cc1nc2cnc(N3CCOCC3)nc2n(C)c1=O -7.15%
COc1ccc(CNc2ncncc2-c2cccc(NS(C)(=O)=O)c2)c(OC)c1 -14.8%
CN1Cc2c(N)cccc2C(c2ccccc2)C1 (stereo not given) 17.8%
